“And” between values parts separate entries of the source, which are not always exact repeats. Equal values may be shown once. Read-outs that look alike come from different tables or passages of the source.
Experiments:
[1] = target: PF-7802-labelled proteins in ARPE-19 cells (Homo sapiens, UniProt P60900); conditions: protein PSMA6 Proteasome subunit alpha type-6, P60900
[2] = target: T1, PF-7802-labelled proteins in ARPE-19 cells (Homo sapiens, UniProt P21589); conditions: for Median SILAC Ratio (Heavy/Light): protein NT5E'-nucleotidase (P21589), replicates in separate columns
T1 sequence (P21589 27-574): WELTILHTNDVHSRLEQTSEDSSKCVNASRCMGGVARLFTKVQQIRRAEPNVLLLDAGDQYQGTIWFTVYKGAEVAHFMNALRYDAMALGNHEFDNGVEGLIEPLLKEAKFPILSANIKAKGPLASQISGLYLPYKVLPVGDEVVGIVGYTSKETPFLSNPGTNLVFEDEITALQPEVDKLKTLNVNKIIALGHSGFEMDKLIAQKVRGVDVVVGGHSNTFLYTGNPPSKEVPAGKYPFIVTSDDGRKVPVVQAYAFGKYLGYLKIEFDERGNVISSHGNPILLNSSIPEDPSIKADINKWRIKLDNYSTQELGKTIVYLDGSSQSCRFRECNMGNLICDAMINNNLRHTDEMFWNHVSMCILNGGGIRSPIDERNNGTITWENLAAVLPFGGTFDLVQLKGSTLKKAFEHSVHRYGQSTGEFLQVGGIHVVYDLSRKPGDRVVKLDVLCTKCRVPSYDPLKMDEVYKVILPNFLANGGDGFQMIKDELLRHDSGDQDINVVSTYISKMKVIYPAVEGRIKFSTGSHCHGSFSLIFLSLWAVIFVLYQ

[3] = target: T2, PF-7802-labelled proteins in ARPE-19 cells (Homo sapiens, UniProt P35221); conditions: for Median SILAC Ratio (Heavy/Light): protein CTNNA1 Catenin alpha-1 (P35221)
T2 sequence (P35221 1-906): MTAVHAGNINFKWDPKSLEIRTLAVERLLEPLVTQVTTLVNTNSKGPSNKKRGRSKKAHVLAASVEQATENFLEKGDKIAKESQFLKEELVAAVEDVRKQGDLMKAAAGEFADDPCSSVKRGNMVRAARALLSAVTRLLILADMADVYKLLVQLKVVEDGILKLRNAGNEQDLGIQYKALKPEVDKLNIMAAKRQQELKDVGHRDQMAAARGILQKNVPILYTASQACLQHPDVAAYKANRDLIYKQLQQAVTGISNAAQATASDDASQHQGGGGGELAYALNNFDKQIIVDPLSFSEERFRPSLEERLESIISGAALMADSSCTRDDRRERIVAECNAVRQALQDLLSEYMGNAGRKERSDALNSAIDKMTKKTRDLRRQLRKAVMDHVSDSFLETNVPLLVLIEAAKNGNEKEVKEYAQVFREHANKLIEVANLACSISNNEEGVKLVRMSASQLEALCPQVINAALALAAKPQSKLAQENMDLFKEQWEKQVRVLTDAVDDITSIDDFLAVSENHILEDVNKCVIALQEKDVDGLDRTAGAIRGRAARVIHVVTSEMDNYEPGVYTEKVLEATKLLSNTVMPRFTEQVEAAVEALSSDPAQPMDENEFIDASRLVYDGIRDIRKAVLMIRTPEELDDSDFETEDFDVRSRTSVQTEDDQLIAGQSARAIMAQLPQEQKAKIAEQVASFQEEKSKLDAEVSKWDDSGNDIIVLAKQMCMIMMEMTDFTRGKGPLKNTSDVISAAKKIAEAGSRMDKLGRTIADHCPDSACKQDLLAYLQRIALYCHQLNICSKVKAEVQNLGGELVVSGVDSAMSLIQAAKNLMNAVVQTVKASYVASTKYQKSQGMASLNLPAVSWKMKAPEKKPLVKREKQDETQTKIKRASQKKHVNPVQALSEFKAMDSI

[4] = target: PF-7802-labelled proteins in ARPE-19 cells (Homo sapiens, UniProt P55072); conditions: for Median SILAC Ratio (Heavy/Light): VCP Transitional endoplasmic reticulum ATPase (P55072)
UniProt P55072, sequence (P55072 whole entry): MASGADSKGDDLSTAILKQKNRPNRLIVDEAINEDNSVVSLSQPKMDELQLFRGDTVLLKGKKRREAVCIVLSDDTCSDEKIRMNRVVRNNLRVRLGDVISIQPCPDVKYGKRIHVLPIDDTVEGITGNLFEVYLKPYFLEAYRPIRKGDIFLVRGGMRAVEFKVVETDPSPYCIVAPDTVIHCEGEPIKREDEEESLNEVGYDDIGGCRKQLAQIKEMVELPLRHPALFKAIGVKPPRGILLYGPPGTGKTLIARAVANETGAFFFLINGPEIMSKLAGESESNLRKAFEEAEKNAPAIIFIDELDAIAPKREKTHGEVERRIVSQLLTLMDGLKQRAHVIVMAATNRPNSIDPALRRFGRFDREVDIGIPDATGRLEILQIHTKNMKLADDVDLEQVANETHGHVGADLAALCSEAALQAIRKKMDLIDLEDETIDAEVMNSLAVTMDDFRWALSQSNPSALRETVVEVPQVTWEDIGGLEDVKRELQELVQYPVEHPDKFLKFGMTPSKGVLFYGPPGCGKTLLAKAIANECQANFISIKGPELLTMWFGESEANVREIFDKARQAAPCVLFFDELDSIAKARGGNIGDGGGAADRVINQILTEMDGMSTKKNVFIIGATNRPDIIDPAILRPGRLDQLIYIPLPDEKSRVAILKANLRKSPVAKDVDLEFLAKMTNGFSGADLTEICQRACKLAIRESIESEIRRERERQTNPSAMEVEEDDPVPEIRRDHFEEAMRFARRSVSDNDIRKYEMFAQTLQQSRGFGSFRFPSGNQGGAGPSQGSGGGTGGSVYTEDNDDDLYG

[5] = target: PF-7802-labelled proteins in ARPE-19 cells (Homo sapiens, UniProt Q02218); conditions: protein OGDH 2-oxoglutarate dehydrogenase, mitochondrial (Q02218); replicates in separate columns
[6] = target: PF-7802-labelled proteins in ARPE-19 cells (Homo sapiens, UniProt P11177); conditions: protein PDHB Pyruvate dehydrogenase E1 component subunit beta, mitochondrial (P11177); replicates in separate columns
[7] = target: PF-7802-labelled proteins in ARPE-19 cells (Homo sapiens, UniProt Q5SSJ5); conditions: protein HP1BP3 Heterochromatin protein 1-binding protein 3 (Q5SSJ5); one column per replicate
UniProt Q5SSJ5, sequence (Q5SSJ5 whole entry): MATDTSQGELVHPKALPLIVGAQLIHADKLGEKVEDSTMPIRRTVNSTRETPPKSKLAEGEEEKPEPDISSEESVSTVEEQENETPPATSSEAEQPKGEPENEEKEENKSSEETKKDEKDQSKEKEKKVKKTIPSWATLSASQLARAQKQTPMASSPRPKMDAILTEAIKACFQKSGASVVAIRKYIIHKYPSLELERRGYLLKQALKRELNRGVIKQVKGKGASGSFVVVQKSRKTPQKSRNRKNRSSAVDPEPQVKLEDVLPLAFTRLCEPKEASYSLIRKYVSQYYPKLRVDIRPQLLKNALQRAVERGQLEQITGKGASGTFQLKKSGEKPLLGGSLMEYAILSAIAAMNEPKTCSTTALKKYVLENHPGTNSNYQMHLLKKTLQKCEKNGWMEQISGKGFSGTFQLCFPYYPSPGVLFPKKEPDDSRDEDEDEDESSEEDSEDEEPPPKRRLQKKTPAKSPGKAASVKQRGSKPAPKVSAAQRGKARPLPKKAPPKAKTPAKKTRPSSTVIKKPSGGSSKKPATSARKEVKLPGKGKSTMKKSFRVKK

[8] = target: PF-7802-labelled proteins in ARPE-19 cells (Homo sapiens, UniProt Q9BWM7); conditions: SFXN3 Sideroflexin-3 (Q9BWM7)
UniProt Q9BWM7, sequence (Q9BWM7 whole entry): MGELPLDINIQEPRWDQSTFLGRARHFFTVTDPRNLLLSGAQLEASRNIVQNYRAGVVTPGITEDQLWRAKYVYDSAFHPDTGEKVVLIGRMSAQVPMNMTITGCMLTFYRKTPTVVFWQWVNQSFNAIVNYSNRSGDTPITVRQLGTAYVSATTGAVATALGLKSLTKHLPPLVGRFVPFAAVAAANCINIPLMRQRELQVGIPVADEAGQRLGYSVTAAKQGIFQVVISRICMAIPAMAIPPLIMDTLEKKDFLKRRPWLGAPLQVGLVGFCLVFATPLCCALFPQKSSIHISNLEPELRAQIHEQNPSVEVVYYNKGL

[9] = target: T3, PF-7802-labelled proteins in ARPE-19 cells (Homo sapiens, UniProt P27348); conditions: for Median SILAC Ratio (Heavy/Light): protein YWHAQ 14-3-3 protein theta (P27348)
T3 sequence (P27348 1-245): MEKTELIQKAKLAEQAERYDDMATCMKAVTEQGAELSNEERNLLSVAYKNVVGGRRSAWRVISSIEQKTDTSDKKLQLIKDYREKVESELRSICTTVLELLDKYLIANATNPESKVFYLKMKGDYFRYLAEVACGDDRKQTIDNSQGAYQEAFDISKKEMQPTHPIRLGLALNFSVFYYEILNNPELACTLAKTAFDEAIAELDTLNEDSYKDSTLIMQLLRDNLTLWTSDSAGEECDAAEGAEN

[10] = target: PF-7802-labelled proteins in ARPE-19 cells (Homo sapiens, UniProt P0DMV9); conditions: for Median SILAC Ratio (Heavy/Light): protein HSPA1B Heat shock 70 kDa protein 1A/1B (P08107), one column per replicate
UniProt P0DMV9, sequence (P0DMV9 whole entry): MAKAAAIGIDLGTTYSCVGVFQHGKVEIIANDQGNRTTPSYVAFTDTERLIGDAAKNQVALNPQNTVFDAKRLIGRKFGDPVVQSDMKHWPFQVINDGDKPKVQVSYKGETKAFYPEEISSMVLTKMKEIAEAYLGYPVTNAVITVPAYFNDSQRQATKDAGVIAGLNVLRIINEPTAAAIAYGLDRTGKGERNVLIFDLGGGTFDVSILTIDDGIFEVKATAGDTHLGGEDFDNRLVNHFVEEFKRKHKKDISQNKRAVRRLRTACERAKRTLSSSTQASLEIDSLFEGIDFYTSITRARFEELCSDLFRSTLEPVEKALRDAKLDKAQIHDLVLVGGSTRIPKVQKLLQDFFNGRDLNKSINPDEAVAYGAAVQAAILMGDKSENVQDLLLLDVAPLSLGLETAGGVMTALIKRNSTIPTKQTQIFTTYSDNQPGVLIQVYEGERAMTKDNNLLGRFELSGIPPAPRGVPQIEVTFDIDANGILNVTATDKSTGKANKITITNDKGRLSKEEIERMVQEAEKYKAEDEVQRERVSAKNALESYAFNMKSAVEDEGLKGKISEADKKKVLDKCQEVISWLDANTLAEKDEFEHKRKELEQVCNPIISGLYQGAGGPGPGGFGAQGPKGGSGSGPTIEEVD

[11] = target: PF-7802-labelled proteins in ARPE-19 cells (Homo sapiens, UniProt P08729); conditions: protein KRT7 Keratin, type II cytoskeletal 7 (P08729); one column per replicate
UniProt P08729, sequence (P08729 whole entry): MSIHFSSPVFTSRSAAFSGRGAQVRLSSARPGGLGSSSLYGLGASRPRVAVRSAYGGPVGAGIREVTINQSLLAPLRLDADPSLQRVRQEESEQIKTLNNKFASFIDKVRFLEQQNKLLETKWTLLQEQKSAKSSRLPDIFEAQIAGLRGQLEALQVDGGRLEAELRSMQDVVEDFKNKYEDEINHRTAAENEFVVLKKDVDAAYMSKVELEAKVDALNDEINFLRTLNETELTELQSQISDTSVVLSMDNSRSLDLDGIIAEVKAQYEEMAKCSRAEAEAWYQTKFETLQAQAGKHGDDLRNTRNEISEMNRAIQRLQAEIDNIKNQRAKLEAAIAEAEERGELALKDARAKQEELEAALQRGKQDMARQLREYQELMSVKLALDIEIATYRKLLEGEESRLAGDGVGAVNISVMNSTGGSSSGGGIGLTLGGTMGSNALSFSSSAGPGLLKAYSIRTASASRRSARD

UniProt P60900, sequence (P60900 whole entry): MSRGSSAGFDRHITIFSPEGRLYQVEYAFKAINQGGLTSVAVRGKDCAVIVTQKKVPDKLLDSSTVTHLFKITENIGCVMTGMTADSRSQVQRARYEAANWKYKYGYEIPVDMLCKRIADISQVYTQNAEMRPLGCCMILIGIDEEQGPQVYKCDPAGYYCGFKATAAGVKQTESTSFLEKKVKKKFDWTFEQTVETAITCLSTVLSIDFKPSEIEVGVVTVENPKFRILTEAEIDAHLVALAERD

CNC1CCN(C(=O)C[C@@H](Cc2ccccc2)C(=O)N[C@@H](CSC)C(=O)N[C@@H](CC2CCCCC2)[C@@H](O)C(=O)OC(C)C)CC1 [CP-108671, reference compound]
Median SILAC Ratio (Heavy/Light) [1]: 1.922
SILAC ratio (DMSO/CP-108671) ([2]; P21589 NT5E 5'-nucleotidase): 1.16
Median SILAC Ratio (Heavy/Light) [2]: 0.863
SILAC ratio (DMSO/CP-108671) ([3]; P35221 CTNNA1 Catenin alpha-1): 0.82
Median SILAC Ratio (Heavy/Light) [3]: 1.216
SILAC ratio (DMSO/CP-108671) ([4]; P55072 VCP Transitional endoplasmic reticulum ATPase): 0.64
Median SILAC Ratio (Heavy/Light) [4]: 1.56
Median SILAC Ratio (Heavy/Light) [5]: 1.171
Median SILAC Ratio (Heavy/Light) [6]: 1.421
Median SILAC Ratio (Heavy/Light) [7]: 1.678
Median SILAC Ratio (Heavy/Light) [8]: 1.272
SILAC ratio (DMSO/CP-108671) ([9]; P27348 YWHAQ 14-3-3 protein theta): 0.50
Median SILAC Ratio (Heavy/Light) ([9]; replicate R1): 2.0134
SILAC ratio (DMSO/CP-108671) ([10]; P08107 HSPA1B Heat shock 70 kDa protein 1A/1B): 0.72
Median SILAC Ratio (Heavy/Light) [10]: 1.387
Median SILAC Ratio (Heavy/Light) [11]: 9.803

Cc1cc([C@H]2C[C@H]3[C@@H](C)SC(N)=N[C@@]3(c3ccc(F)cc3F)CO2)on1 [PF-9283]
Median SILAC Ratio (Heavy/Light) [1]: 2.229
Median SILAC Ratio (Heavy/Light) [2]: 1.036
Median SILAC Ratio (Heavy/Light) [3]: 1.389
Median SILAC Ratio (Heavy/Light) [4]: 1.513
Median SILAC Ratio (Heavy/Light) [5]: 1.344
Median SILAC Ratio (Heavy/Light) [6]: 1.1285
Median SILAC Ratio (Heavy/Light) [7]: 1.229 and 0.8745
Median SILAC Ratio (Heavy/Light) [8]: 1.476
Median SILAC Ratio (Heavy/Light) ([9]; replicate R3): 1.45
Median SILAC Ratio (Heavy/Light) ([9]; replicate R4): 2.687
Median SILAC Ratio (Heavy/Light) [10]: 1.491 and 2.388 and 2.9976
Median SILAC Ratio (Heavy/Light) [11]: 0.8663

Source: PMC5062570 (Nature Communications, 2016)
